B1: LINE1-full (parent)
chain: UACGUAGGUGGUUUUCCCCUGAUAGUGCUAAGGGGGCCUGGAAGUUUGGACUGGGCAGAGCUCAACACAGCGUGGCAAAGUGGCUGUGGCUAGACUGCCUCUCUGGAUUCCUCGUCACUCAGCAGGGCAUCUCUGAGAGAAAUGCC

The source gives no read counts; variants with many changes may rest on few reads.

Variants of B1 are the subject of this data set. In words: self-cleavage, relative activity (ratio to wild type); higher = more cleavage; in vitro, sequencing; the parent is a self-cleaving ribozyme.
With A79U U132C U134C, the self-cleavage was 1.99. On to U12C U104C U119C, for which the self-cleavage was 1.6.

Take U14C G70A A124U: the self-cleavage is 0.29. For A59U C68U U109C, the self-cleavage amounted to 0.1.

With A42G G58U U73A U100C A138U, the self-cleavage was 0.03. Regarding U12C A67G U112C, the self-cleavage is 0.69. Then A30G U102C A136U, with 0.37; and C56U A77G U104C A117U, with 0.19.

With U39A G58A A77U C90U A142G, the self-cleavage stood at 0.01.

With U46C U52C U102A, the self-cleavage was 1.08. On to C3U U5C C76U U96C, for which the self-cleavage was determined as 0.39. For C17A U47A U62C U91C U115C, the self-cleavage came to 0.6. For the variant U15C A59G U112A, the self-cleavage was found to be 0.08. For U15C U52A U143C, the self-cleavage was found to be 1.21. Under C37U U62C A69U A77G U91C A92G U108A A141G stands 0; under U14C A67U U108C, 0.06; under A64G A117U U132C U143C, 0.13. Under A24G U108C C113A stands 1.84; under U96A U109C U143G, 0.11; under U13C G21U U108C A129G, 2.16. For the variant U9C U15C U20C U47C G80A A142G, the self-cleavage stood at 1.87. With G44A A57G U134A, the self-cleavage came to 0.84.

Take A77G U81C U112C: the self-cleavage is 1.84. Then U5A U13C U85C, with 0.36; and U15A A79G U91C A94G C98U U115C, with 0; and A65G U85C A129G A141G, with 0.

For the variant A2G A64U A67G U81C U100A A129G, the self-cleavage worked out at 0.

Turning to U23A U85C C98U U109C, the self-cleavage is 0.17. Then A31G A65G A140G, with 0; and U9A A24G G88A, with 0.14. Take U14A U47C G54A G74A: the self-cleavage worked out at 1.01. Regarding U20A A65G A141G, the self-cleavage turned out to be 0.02. Under U45C A78U U91A A138G stands 0.72. Turning to U39A U73A U102C G126U A129G, the self-cleavage came out at 2.02. As to U14C U62A U73C G88A, the self-cleavage amounted to 0.09. In the case of A31U A94G A129U, the self-cleavage was found to be 0.11. For A2G U46G A107G, the self-cleavage was found to be 1.06. Then U9C A30U A140G, with 0.89. Then U14C A94G U115C A124U A136G, with 0. U26G U46C A57U A136G: the self-cleavage was 0.3. Turning to U14C U47C U96G, the self-cleavage is 0. For the variant U15G A67U U112A U132C, the self-cleavage stood at 0.27. Consider U14C U15C A65G U130A A141G, for which the self-cleavage came out at 0.34.

Regarding A24C U96C U100C, the self-cleavage came to 0.61.

For U26C U29C A57C A64U C95U U134A, the self-cleavage stood at 0.1. For G7A U13G A59G, the self-cleavage turned out to be 0.09.

For U14C U91C U115C, the self-cleavage was determined as 0.48. A67U A92U U96A: the self-cleavage is 0.02. In the case of U14A C16U U119C, the self-cleavage stood at 1.66. Take U81G A94G U108A: the self-cleavage was determined as 0.41.

For the variant U46C U73A U119C U143C, the self-cleavage was determined as 2.26.

Turning to A57G A59U U62C U87C, the self-cleavage came to 0.

In the case of U47A A65G U112A A121U, the self-cleavage was 0.03. As for U12C U108C U112A U115C A142G, the self-cleavage was determined as 0. In the case of U73C A79U A92G, the self-cleavage came out at 0.23. Take U20A A24G G32A A43G A78G U108C: the self-cleavage was 0. Then A6G U29A G144U C145U, with 0.85. For the variant A6G U108C A142G, the self-cleavage is 2.19.

With G4A A43G U46C G75A, the self-cleavage amounted to 0.74. Under G48A A94C G126A stands 0.05.

As to C37G A77G U115A, the self-cleavage was 2.3. U14C G34A U119C A141G: the self-cleavage stood at 1.1. Under A42U U62C A124U stands 0.05. For the variant A6G U13C A77U A107G U119A, the self-cleavage turned out to be 0.88. Under A67G A94U U119C U130C stands 0.46; under U15C A94U U112C A142G, 0.2. For G97A U100A U115C, the self-cleavage was determined as 0.39. Consider U23A U87A U115A A121U A129U A136U, for which the self-cleavage amounted to 0.14. Then U62C A77G U134G, with 0.05; and A57G A69U A77G U134G, with 0; and U9C A50G A138U, with 1.28. With U20C A22U U62C A121G C133U, the self-cleavage was found to be 0.17. Then U13A G34A U115A, with 0.6; and U5A A42G U45C U52A, with 0.77; and A6U A43G U45C C98U A129G A142G, with 0.17. For the variant A6G C28U U130G, the self-cleavage worked out at 1.06. As for U47C A121U A129G, the self-cleavage was determined as 1.53. In the case of U5C U12C U20A U96C C128U, the self-cleavage is 1.12. Consider C51U A67U A78G U87C U100A U108C, for which the self-cleavage is 0.26. On to A30G U39C U73G A141U, for which the self-cleavage turned out to be 0.88. As for U52G A57U U119A, the self-cleavage was 0.36. For the variant A6U G36C A121G A129G, the self-cleavage came out at 0.77. Under U14C U23A U87A stands 0.21. Consider U14A A50G A94G, for which the self-cleavage came to 0. Regarding U115A U134A A140G, the self-cleavage worked out at 0.55. Then A67G A69G C76U G126U G137A, with 0.24; and U62A A77G A78G, with 0.1. In the case of U9C C63U A79G U87G, the self-cleavage came out at 0.25.

Consider A2G U73C U85C U96C C128U, for which the self-cleavage amounted to 0. For the variant A42G A94G U100C C101A U132C, the self-cleavage was determined as 0.

Consider G27A A50G U119A, for which the self-cleavage was 0.73. C28G U73A A138G: the self-cleavage amounted to 1.85.

In the case of U73G A121U U143C, the self-cleavage is 1.73. On to U15A U26C U73C U115A, for which the self-cleavage is 0.28. Then U52C C68U G127A A138G A142G, with 0.15; and C18U A30G A59G, with 0.28. Then A6U U26C U73A, with 1.69; and U29C A69G U104C, with 0; and U12C U26C A138G, with 1.96. Under U14C A42G U62C U96G stands 0; under U13A A43G U109A, 0.99; under U46A A67G G122A, 0.04. For U12G U14C U20C A129U, the self-cleavage turned out to be 0.26. Turning to U26A A69G A78U A136U, the self-cleavage was 0.57. Then A69G A77G C84U U109C, with 0.05; and C71G U102G C103U A107U A142G, with 1.18.

As for U12G U15C A121G A140G, the self-cleavage turned out to be 0. Take U52A U85C U112A: the self-cleavage was found to be 0.15. As for U9A A22G G86A U100C, the self-cleavage amounted to 0.17.

U5C G53A U62C G125U: the self-cleavage came out at 0.04. Consider A30G A50U U87A U109C A140G, for which the self-cleavage stood at 0. As for U26C U85C U87A, the self-cleavage turned out to be 0.15. For the variant U9C U12C U15C A140G, the self-cleavage was found to be 1.38. As to A65U U87C A94G, the self-cleavage was determined as 0.13.

Take U13A C19U U96A: the self-cleavage is 0.11.

As for A6G A31U A129U, the self-cleavage was 1.49.

U96C A121C A140G: the self-cleavage worked out at 0.18. For U20A A24G A77U A107G, the self-cleavage came out at 0.92. Under U102C C113U U119C A140U stands 2.52; under U1A C18A A65G U100C, 0. U20A U47C A57G A65G: the self-cleavage worked out at 0.51. For the variant A64C U109C C146U, the self-cleavage stood at 0.27. On to A59U A77U U109A, for which the self-cleavage is 0.77. On to U1C U13C A92G U134A, for which the self-cleavage is 0.

For the variant U1C G10A U39C U100A U112C A138U, the self-cleavage stood at 0.17. Under A77U G114A A124U stands 1.36; under U14C U52A U132C U143C, 1.86. For G40A U96C A117G C145A, the self-cleavage came out at 0. With A24U U85A A136G, the self-cleavage amounted to 0. For the variant U20A A30G G34A U45A U143A, the self-cleavage stood at 0.84. For the variant A59G U119A A140C, the self-cleavage is 0.15.

In the case of U26C A107G A136G, the self-cleavage came to 1.74.

In the case of U20C G55A U87C, the self-cleavage was 0.13. Then A69G A129G A138C, with 0.51. Consider C3U U14C U115G, for which the self-cleavage is 1.16. Regarding C18U A78G U109A U112C, the self-cleavage came out at 0.72. Consider G35A A79G A107C A140G, for which the self-cleavage worked out at 0.99. As to U13A A57U C128G, the self-cleavage turned out to be 0.02. Take U14C U20C A117U A121U: the self-cleavage was found to be 1.56. For G60A C76U A77G U91C U112C, the self-cleavage was found to be 0.02. Turning to U20A A64G A65G, the self-cleavage is 0. U96C U100A U130C: the self-cleavage was 0.57. Consider A31U C63A U109C C123U A124G A136G, for which the self-cleavage was 0.06. Turning to U13C U91C G144A, the self-cleavage was 1.12. A24G G35A A50G: the self-cleavage was 0.64.

As to C118U A124G U132C, the self-cleavage turned out to be 0.88.

On to G33A U47A U87G, for which the self-cleavage came out at 0.29. For U14C A129G C133U, the self-cleavage was 2.47. Take U87A A94G U134A: the self-cleavage was 0.14. As for U20A U26A G36A A43G, the self-cleavage was 0.47. Take C16U A22G C90U A140U: the self-cleavage stood at 0.06.

On to U13C U29C U81C C110U A142G, for which the self-cleavage is 1.84. On to U46C U96C U119A, for which the self-cleavage amounted to 0.73. With A43G A57G A94G, the self-cleavage was determined as 0.17. Then U12C A42G U143C, with 0. Then A57G A92G A107G U115A, with 0; and A6C A94G U96A A124U A129U, with 0.09; and U26C A57G U115C, with 0. As to U108G G114A U143C, the self-cleavage turned out to be 0.92. As for A43G U46C A77G A107U C128U, the self-cleavage worked out at 1.71. For the variant U1C U9C U14C U26A A69G A142G, the self-cleavage amounted to 0.48. Consider A2G G32A A121U U134C A142G, for which the self-cleavage is 1.25. With G89A A117U U132C, the self-cleavage was 0.02. As to U26C A94U A138G, the self-cleavage came to 0.

Take U9A A22G U96C G97C U109C: the self-cleavage was 0.25. For A67U U87G U119C, the self-cleavage came to 1.27. Turning to G10A U23C A77G, the self-cleavage is 2.03.

The values above are taken from the RNAGym collection of RNA variant scans (doi:10.7554/elife.90254).
